We go through 83 variants from the RNAGym collection of RNA variant scans (doi:10.1093/nar/gkz1192).

Read counts are not given, so values of variants with three or more changes are uncertain.

To fix the notation:
B1: CPEB3 Ribozyme (parent)
chain: UAACAGGGGGCCACAGCAGAAGCGUUCACGUCGCAGCCCCUGUCAGAUUCUGGUGAAUCUGCGAAUUCUGCUGUAUAUCUC

The variants in this series derive from B1. Briefly: self-cleavage, relative activity (ratio to wild type); higher = more cleavage; in vitro, sequencing. The procedure, abridged: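 Barcoded CPEB3 ribozyme mutants, produced by rounds of error-prone PCR, self-cleaved while being transcribed with T7 RNA polymerase for 5 hours at 37°C and during a subsequent 15 min DNase I step before EDTA was added. Sequencing of template-switched cDNA on Illumina gave cleaved and total reads, and DNA sequencing assigned barcodes to variants. Each variant's relative activity is its cleaved/total read fraction divided by the unmutated ribozyme's fraction, averaged across three batches. A variant needed a minimum of 5 reads.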
For the variant A21G A35U U54A A56U U76C, the self-cleavage turned out to be 0.12. On to A21G A28U U80C, for which the self-cleavage was 0.55.

Regarding A21G A28G U51C U58C U78C, the self-cleavage turned out to be 0.24. For A21G A57G A64U, the self-cleavage was determined as 0.24. For the variant A21G C23G A64G U69A U72C, the self-cleavage turned out to be 0.13. Turning to A21G A47G A56C A57U, the self-cleavage is 0.06. The result for A20U U26C U51C C68A reads 0.13.

With A21G A28G G33C U43C U49C C68A U78A, the self-cleavage stood at 0.03.

Turning to A21C U31C A64G, the self-cleavage was determined as 0.07.

For A21G A47G U49C A56U U66C, the self-cleavage stood at 0.25. With A21G A47G A65G U67A, the self-cleavage turned out to be 0.1. Take A21G A47G U72C: the self-cleavage turned out to be 0.66.

Consider A20U U41A A64U A77U, for which the self-cleavage was determined as 0.06. Take A21G A28G G42U U54C A56U U58C A64U: the self-cleavage worked out at 0.05.

Regarding A20U U67C U78A, the self-cleavage amounted to 0.15.

A20U U51C A64G: the self-cleavage was found to be 0.1. For the variant A20U U43A C81U, the self-cleavage is 0.4. As to A21G A47U U51A A64U, the self-cleavage came to 0.06. The result for A21C U31A U76C reads 0.25.

A21G A56G A57U U67C U69C: the self-cleavage was found to be 0.07. With A21C A28U A57U the figure was 0.05; with A21G C23U C29U G55U U72C, 0.08; with A21G C29A C37A A45G A47G U51C, 0.05. Consider A21G A57G A75G, for which the self-cleavage came out at 0.42. On to A21G A57G U78C, for which the self-cleavage turned out to be 0.28. The result for A21G C23U A28G A47G reads 0.03; that for A21G A45G U72C U78C, 0.74. In the case of A21G A47G U48C U60C, the self-cleavage is 0.08. Take A21G A35U U80C: the self-cleavage was 0.34.

A21C U60C U78C: the self-cleavage amounted to 0.08. With A20U U26A C29U A35G A45U A64U the figure was 0.08; with A20U U31A A35U U60A, 0.06; with A21G A45U A56U U69C, 0.08. Consider A20U U31C U51C, for which the self-cleavage is 0.14. With A21C U26C U43C, the self-cleavage amounted to 0.37. On to A20U U26A G36U A77U, for which the self-cleavage is 0.11.

Take A20U U41C C79G: the self-cleavage turned out to be 0.45. With A21G C27U C40U A64G the figure was 0.08; with A20U U51A U72C, 0.27; with A21G A57G C71A, 0.14. Regarding A21G A28G U41A U54A G63U, the self-cleavage came out at 0.27. As for A21G A28U U31C U41C U78C, the self-cleavage is 0.11. For A21G A28G U43C, the self-cleavage came out at 0.26. Take A21C U25G U31A A45G U72C: the self-cleavage was found to be 0.23. Regarding A21G A35U C38A U72C, the self-cleavage was 0.28. On to A21C G33A U41C G53U U58C, for which the self-cleavage amounted to 0.1. With A20U U60C C79U the figure was 0.12; with A20U U43A A77U, 0.17; with A21G A35G U60A, 0.68.

With A21G A28G U41A U48C, the self-cleavage was 0.08. Take A20U U54C U74C: the self-cleavage is 0.13.

With A20U U43C A56G U66A C68U, the self-cleavage turned out to be 0.08. On to A20U U58C A64G, for which the self-cleavage was 0.58. With A21G C27U G55A the figure was 0.04; with A20U U26C U51C U80A, 0.05; with A21G C29U A65U U67C, 0.09. With A20U U31C U51C U54C the figure was 0.18. Take A21G A35U U69C: the self-cleavage was 0.92.

Take A20U U31C U43C U48C U60C: the self-cleavage stood at 0.07. A21C A57U U69C: the self-cleavage stood at 0.32. In the case of A21G C23A A28U U41C U69C, the self-cleavage is 0.06. The result for A21G C29U U31A A56G reads 0.08; that for A21G C27A C32A A65G U67C, 0.07.

For A21G A57G U60C U69G, the self-cleavage was 0.2. On to A21G A28G U41C U80A, for which the self-cleavage amounted to 0.25. In the case of A20U U26C G30U, the self-cleavage stood at 0.16. Take A21G A56C U74C: the self-cleavage is 0.58. Take A21G A28C G30A U60A: the self-cleavage was found to be 0.18.

Turning to A21C U26A G36U U41C U76C, the self-cleavage was 0.05. For the variant A21G C23U U43A U69A, the self-cleavage came out at 0.2.

In the case of A20U U54C U58A, the self-cleavage was 0.23.

For A21G A28G U41A U69C U72C U78G, the self-cleavage amounted to 0.06. A21G A28G U41C U80G C81U: the self-cleavage worked out at 0.33. Consider A20U U31A A45U A47G U80A, for which the self-cleavage was 0.18.

As for A20U U60A U67C, the self-cleavage amounted to 0.12. Take A21G A35G U54A A64G: the self-cleavage was found to be 1.15. Regarding A20U U51G A65G U74C, the self-cleavage was found to be 0.19. As to A21G A35G U80C, the self-cleavage was 1.24. Turning to A21G A28U C37U, the self-cleavage is 0.34. Regarding A21G A28U U78C C79U, the self-cleavage was 0.25. With A20U U26C U54A, the self-cleavage stood at 0.24. Consider A20U U26A U31C U41A, for which the self-cleavage was determined as 0.56.

Consider A21C A35G U54A U78C, for which the self-cleavage is 0.43.
